# About 22,000 (7.3%) of roughly 300,000 compounds were called active. The inconclusive results got no clear call from the source; some entries with a clear call stand among them for comparison. Rule as the data show it: active = activity score below about -60%; inconclusive = mostly about -28% to -61%; inactive = positive scores.
# Assay: Activators via SNCA 5'UTR binding, MLPCN (AID 1814)
# Settings: alpha-synuclein 5'UTR reporter, activators screen; stronger effect = lower value; tested at 7.5 µM
row,Structure (SMILES),activity score
1,CCN(CC)S(=O)(=O)c1ccc(N/N=C/c2ccc(O)cc2O)nc1,inactive: 90%
2,NCCOc1ccc(C23CC4CC(CC(C4)C2)C3)cc1,inactive: 81%
3,Cc1cccc(C(=O)NC(C(=O)Nc2nc(-c3ccccn3)cs2)C(C)C)c1 (stereo unspecified),inactive: 81.4%
4,COc1ccc(C(=O)Nc2ccc(NC(=O)C3CC3)cn2)cc1,inconclusive: -46.1%
5,Cc1ccc(C2Cc3cc(O)c(O)cc3CN2)cc1 (stereo unspecified),inactive: 89%
6,C(=N\Nc1nc2ccccc2[nH]1)/c1cccc2cccnc12,inactive: 73.4%
7,CCNc1nc(C)c2cc(Br)c(=O)n(CC)c2n1,inactive: 76.5%
8,N#CC(=C1CCCC1)c1nc(-c2ccc(Cl)cc2)cs1,active: -189%
9,O=C(COC(=O)/C=C/c1cccs1)Nc1nc(-c2ccccc2)cs1,inconclusive: -60%
10,CCc1cccc(NC(=O)C2CCCC2)c1,inconclusive: -44.3%
11,O=C(NCc1ccco1)c1cccn2c(=O)c3sccc3nc12,inconclusive: -33.7%
12,COc1ccc(CN2C(=O)CS/C2=N/N=C/c2cccs2)cc1,inconclusive: -59.1%
13,O=c1[nH][nH]cc1C=Nc1ccc(Cl)cc1Cl,inconclusive: -52.8%
14,Nc1n[nH]c(N)c1N=Nc1ccc(Cl)cc1,active: -131%
15,Cc1ccc(N=Nc2ccc(O)c(/C=N\NC(=O)c3ccc(N)cc3)c2)cc1C,inactive: 58.5%
16,NC(=O)COC(=O)CSc1cccc2cccc(Cl)c12,inconclusive: -61.1%
17,CN(C)S(=O)(=O)c1cccc(NC(=S)N/N=C/c2cc(Br)ccc2O)c1,inactive: 69.4%
18,O=C(N/N=C/c1cccc(F)c1)c1c(O)c2ccccc2[nH]c1=O,inconclusive: -37%
19,Cc1ccc(-c2ccnc3c(Cl)c(C)nn23)cc1,inactive: 68.7%
20,COC(=O)c1cc(NC2c3ccccc3C(=O)N2c2ccc(Cl)cn2)cc(C(=O)OC)c1 (stereo unspecified),inconclusive: -58.9%
21,CCCCCCSc1nsc(NC(=O)CCC)n1,inconclusive: -49%
22,CNC1=C(N(C(C)=O)c2ccc(Br)cc2)C(=O)c2ccccc2C1=O,inactive: 111%
23,Cc1ccc(NC(=O)c2cnc(SCC(=O)NCC3CCCO3)n(C)c2=O)cc1C (stereo unspecified),inconclusive: -54.6%
24,Cc1cccc2c(=O)c(C(=O)NCCc3ccccc3)c[nH]c12,inconclusive: -59.5%

row,Structure (SMILES),activity score
1,O=C(CSc1nnc(Nc2ccccc2)s1)NCCN1C(=O)CSC1=O,inconclusive: -58.9%
2,C(=N\n1cnnc1)/c1ccccc1OCCOc1ccccc1,inconclusive: -55.2%
3,Cc1ccc2c(COC(=O)c3n[nH]c4ccccc34)cc(=O)oc2c1,active: -172%
4,COc1ccc(/C=N/NC(=O)c2[nH]c3ccc(Br)cc3c2-c2ccccc2)cc1,inactive: 79.8%
5,COc1ccccc1NS(=O)(=O)c1cccc(C(=O)NC2CCN(Cc3ccccc3)CC2)c1,inactive: 83%
6,CCN(CC)c1nc2c(s1)C(=O)CC(C)(C)C2,inconclusive: -44.6%
7,COc1cccc(CN(CC2CCCO2)C(=O)c2cc3ccccc3oc2=O)c1 (stereo unspecified),inconclusive: -60.1%
8,COc1cccc2c(C)c(C(=O)O)[nH]c12,inconclusive: -54.3%
9,O=[N+]([O-])c1cc(CN2CCN(c3cccc(C(F)(F)F)c3)CC2)c2cccnc2c1O,inactive: 70.8%
10,COc1cc(OC)cc(C(=O)N[C@H](C(=O)Nc2nc3c(s2)CCCC3)C(C)C)c1,inconclusive: -59.6%
11,Cc1cccc(OCCOc2ccccc2C=C(C#N)C#N)c1,inconclusive: -56.5%
12,Cn1cccc1-c1cc(C(=O)N/N=C/c2cc(Br)ccc2O)[nH]n1,inactive: 70.5%
13,CC(C)c1ccc(-c2nnn(CCC(=O)O)n2)cc1,inactive: 118%
14,CC(=O)c1sc(NC(=O)C2COc3ccccc3O2)nc1C (stereo unspecified),inactive: 61.8%
15,CC(C)CC(C)NNC(=O)c1cc2ccccc2[nH]1 (stereo unspecified),inconclusive: -30.2%
16,COc1ccc(/C=C/C(=O)NC2=NCCS2)cc1OC,active: -148%
17,O=c1oc2ccccc2c(Nc2ccccc2O)c1[N+](=O)[O-],inconclusive: -55.5%
18,COc1ccc(C)cc1NS(=O)(=O)c1ccc(-c2cnc(C3CC3)o2)cc1,inactive: 102%
19,COc1ccc(-c2c/c(=N\c3nc(-c4ccccc4)c(C)s3)c3ccccc3o2)cc1O,inactive: 75.3%
20,Cc1cc(C(=O)Nc2cccc3cccnc23)ccc1[N+](=O)[O-],active: -106%
21,COc1ccc(S(=O)(=O)Nc2cc3c(C(C)=O)c(C)oc3c3ccccc23)cc1,inactive: 81.9%
22,COc1ccc(-c2c(C)oc3ccc(C)cc23)cc1,inconclusive: -50.3%
23,Cc1cc(C)c2nc(NCCCNC(=S)NCCCN(C)C)c(C#N)cc2c1,inactive: 96.4%
24,Cc1cccc(NC(=O)c2n[nH]c([N+](=O)[O-])c2Br)c1C,active: -61.9%

row,Structure (SMILES),activity score
1,Nc1ccc(C(=O)n2c3ccccc3c3ccccc32)cc1,inactive: 117%
2,N=c1c(S(=O)(=O)c2ccc(Cl)cc2)cc2c(=O)n3ccccc3nc2n1CCc1ccccc1,inconclusive: -53.6%
3,CC(=O)c1ccc(NC(=S)N2c3ccccc3CC2C)cc1 (stereo unspecified),inconclusive: -50%
4,CC1=C(C(=O)OCC2CCCO2)C(c2coc3ccccc3c2=O)C2=C(CCCC2=O)N1 (stereo unspecified),inconclusive: -59.2%
5,COc1ccc2cc1Oc1ccc(cc1)C[C@H]1c3c(cc4c(c3Oc3cc5c(cc3OC)CCN(C)[C@@H]5C2)OCO4)CCN1C,inactive: 109%
6,COc1ccc(Nc2nnc(SCC3CCCCO3)s2)cc1 (stereo unspecified),inconclusive: -59.8%
7,CC(C)c1ccc(C(=O)NCc2ccc(Cl)cc2)cc1,inconclusive: -54%
8,COc1ccc(N2Cc3ccccc3C2)cc1Cl,inconclusive: -50.8%
9,CCOc1cc(CNc2ccc3c(c2)CCC3)ccc1OC,active: -163%
10,O=C(CSc1ncccn1)NCc1ccc2c(c1)OCO2,inconclusive: -56.7%
11,Cc1csc(Nc2ccccc2)n1,inconclusive: -50.1%
12,COc1ccc(CCNC(=O)Cc2cccs2)cc1,inconclusive: -43.8%
13,COc1ccc(Cc2nnc(NC(=O)Nc3ccc(C)cc3)s2)cc1OC,inconclusive: -56.9%
14,CCc1nc2ccc(Cc3ccc4nc(CC)[nH]c4c3)cc2[nH]1,inconclusive: -51.6%
15,Cc1cc2sc3ccc(C#CC4(O)CCCCC4)cc3c(=O)c2cc1C,inactive: 102%
16,COc1ccc(-c2cc(C(F)F)n3ncc(C(=O)N4CCc5ccccc54)c3n2)cc1,inactive: 60%
17,CCCc1cc(=O)n2[nH]c(-c3ccc(Br)cc3)cc2n1,active: -87.3%
18,Cc1ccc(Nc2nc(CSc3nnc(-c4ccccc4)n3C)cs2)cc1,active: -67.9%
19,COc1ccc(CC(=O)c2ccc(O)cc2O)cc1,active: -85%
20,COc1ccc(CNCCC(c2ccc(OC(C)C)cc2)c2ccccc2OC)cc1 (stereo unspecified),inactive: 134%
21,O=C(Nc1ccccc1C(=O)NCc1cccnc1)c1ccccc1Cl,inconclusive: -22.6%
22,COc1ccccc1N1CCN(/N=C\c2sccc2C)CC1,inconclusive: -59.1%
23,Cc1ccc(N2C(=O)[C@@H]3[C@H](C2=O)C2c4ccccc4C=NN2[C@@H]3C(=O)c2ccc(Cl)cc2)cc1 (stereo partly specified),inconclusive: -45.1%
24,Cc1cc(N/N=C/c2ccc(F)cc2)nc(NCc2ccccc2)n1,inconclusive: -59.1%

row,Structure (SMILES),activity score
1,CC1CCCN(c2ccc([N+](=O)[O-])cc2C(=O)c2ccccc2)C1 (stereo unspecified),inactive: 84.1%
2,COc1ccc(/C=C2\CCc3ccccc3C2=O)cc1CN1CCOCC1,inactive: 62.5%
3,COC(=O)c1sccc1NC(=O)c1ccc(Cl)s1,inconclusive: -40.1%
4,Oc1c(C(c2ccccc2Cl)N2CCCC2)ccc2cccnc12 (stereo unspecified),inactive: 97.3%
5,CCOCCOC(=O)c1[nH]c2c(c1C)C(=O)CC(c1cccs1)C2 (stereo unspecified),inactive: 84.6%
6,Cc1ccc(-c2cc(C(=O)N/N=C/c3c[nH]c4ccccc34)[nH]n2)cc1,inactive: 77.5%
7,O=C(NC1CCCCC1)Oc1cc2oc(=O)sc2cc1Br,inactive: 53.6%
8,O=S1(=O)N=C(N2CCN(c3ccc(F)cc3)CC2)c2ccccc21,inconclusive: -61.1%
9,CCC(=O)Nc1ccc(-c2cc3ccccc3oc2=O)cc1,inactive: 54.2%
10,Clc1ccsc1-c1ccc2ccccc2n1,active: -113%
11,Cc1ccc2nc(-c3ccc(Br)cc3)cn2c1,inactive: 63.2%
12,O=C(Nc1ccc2c(c1)OCCO2)c1cc2sccc2n1Cc1ccc(F)cc1,active: -110%
13,Nc1nc(COc2ccc(Cl)cc2)cs1,active: -93%
14,CN(C)c1ccnc2sc3c(SCc4ccc(Cl)cc4)ncnc3c12,inconclusive: -60.9%
15,CCc1cc2c(C)ccc(C)c2nc1SCC(=O)Nc1cc(C)on1,inactive: 55.1%
16,O=C(CSc1n[nH]c(-c2ccccc2)n1)Nc1ccc(N2CCOCC2)cc1,active: -68.1%
17,CCc1ccc(NC(=O)CSc2nc3ccccc3nc2N2CCCC2)cc1,inconclusive: -55.1%
18,CN(C)C(=S)Nc1nc2ccccc2s1,active: -137%
19,CCC(=O)Nc1ccc2oc(-c3ccccc3Br)nc2c1,active: -186%
20,CCSc1ccc(-c2ccc(C)cc2)nn1,inconclusive: -51.7%
21,N#CC1=C(N)Oc2c(ccc3ccccc23)C1c1cccs1 (stereo unspecified),inactive: 110%
22,CCOc1ccc2nc(SCC(=O)c3cccs3)sc2c1,active: -122%
23,CCOc1ccc2nc(N3CCC(C(=O)NCCCN4CCOCC4)CC3)sc2c1,inconclusive: -56%
24,CCCOc1ccc2nc(NC(=O)OC)[nH]c2c1,inactive: 83.9%

# From PubChem BioAssay AID1814 (Broad Institute, 2009)
